# Source: the supplement of paper PMC11417369
# ± gives the standard deviation of the averaged measurements. This is one part of the list.
# System: PfAP2-G AP2 domain (GST-tagged)
# Experiment: gcPBM binding intensity (ln(normalized median fluorescence intensity)); higher = stronger DNA binding
# Summary of the method: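 Binding intensity is the highest Masliner-normalised natural-log median intensity over replicate spots in either probe orientation. To obtain it, GST-tagged P. falciparum DNA-binding domains made in E. coli were incubated for 1 h on an Agilent 4 × 180k array of primer-extended double-stranded 36-bp intergenic genomic probes plus negative controls. Detection used Alexa488 anti-GST antibody with scanning at 488 nm.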
row,Sequence,gcPBM binding intensity (ln)
1,TTTTTTTTTTTTTTTTTACACACTTTATTCAAACAA [CACACA_site9360],9.82 ± 0.49
2,TCAATATTAAATTATTGTACATGTATGTATATATAT [XGTACX_site3861],10.9 ± 0.52
3,TAACAATAACTTTATACACACATAATATATATATAT [CACACA_site3543],9.96 ± 0.085
4,TGTATTTATAATAAAACACACATTTTTAATGTGCTC [CACACA_site4908],9.73 ± 0.042
5,TTTTTTTTTTTTTTTTTTTTCACATGTGTGGAAAAA [GTGCAC_negctrl_site352],9.8 ± 0.45
6,TTAAAATATACATAAACACACACAAAACGTTTAAGA [CACACA_site8267],10.1 ± 0.18
7,AATTTAAAATATATAGTACACACGTGAACACAAATA [CACACA_site416],11.4 ± 0.72
8,AGGATATATAAGTATACACACATATTTATATTTATA [CACACA_site6239],9.875 ± 0.035
9,TTTTAACGTAAAACATTGATGATATAAAAAATAGGA [GTGCAC_negctrl_site540],10.1 ± 0.18
10,TATACTCATATTTTTACACACATATTTTTTCATATA [CACACA_site5412],10.1 ± 0.2
11,CATATACTTCTGTGCACACGAATATTTTTCTTCTTC [CACACA_site1407],10.5 ± 0.19
12,TGTTGTCCTAATTCTACACACAATGGTTTATTAAAA [CACACA_site2648],11 ± 0.79
13,TTTGTGTTTATAAATTGTACAAAGGTGCAAGAAGAA [XGTACX_site2159],11 ± 0.61
14,AAAAAAAAAAAAAACACACACACACCCATAAATATA [CACACA_site151],10.2 ± 0.16
15,AAGTGCATATTATTCACACATAATAATTGTATACCT [CACACA_site5965],9.95 ± 0.014
16,TTCAAGCCCTTCTGCTTACACACAGTAATTATTGTG [CACACA_site2952],10.35 ± 0.099
17,TATTTTTATTATATGGTGCATATATACATACATATA,10 ± 0.22
18,AAAAAAAAAAAACACACACACAATAGTATATAAATC [CACACA_site956],10 ± 0.11
19,ATATGATCATAAAACACACACACAAAAAAAAAAAAA [CACACA_site1806],9.88 ± 0.42

row,Sequence,gcPBM binding intensity (ln)
1,TAAAAATAATTTGCATGTACATAGGTCGATGTATTT [XGTACX_site1357],11 ± 0.49
2,ATCCACTTTTTGAAGACACACACAAAAAAAAAAAAA [CACACA_site8818],10.2 ± 0.47
3,AATTAGATGGATAAATGTACATAATGTGAATATATT [XGTACX_site86],11 ± 0.4
4,ATATAGAAAATGCATACACACTTTATAAATATATTT [CACACA_site6553],9.945 ± 0.092
5,AGATATTTATTGAGTGCATGTTATAAAGGGAAAAAA [TGCATGCA_site88],10.2 ± 0.25
6,TGTAAATTATAACGTGCACACATATTTAAAATGAAA [CACACA_site8915],10.5 ± 0.34
7,ACGAAGATTTATCTTGCACACGCAAAAAAAAAAAAA [CACACA_site7933],9.86 ± 0.27
8,AACATTTCCTTTCTGTGTACATATAAACCCATCTAT [XGTACX_site2071],11.5 ± 0.73
9,ATATAAATAAAATATACACACATAAATATAACGACA [CACACA_site1637],10.1 ± 0.17
10,ATTCATAAACGTGTGTTAATATGAATTTAAACATAA [XGTACX_negctrl_site213],9.67 ± 0.014
11,ATTATATTTTGTAAATGTACATTTATATATTTTGTA [XGTACX_site1226],10.9 ± 0.61
12,AAAAAAAAAAAAAAAGCATGCACATATTATTTTTTT [TGCATGCA_site416],10.19 ± 0.035
13,TTTAATTTTCGGTGTGCACACAACTATGAGTTTTTA [CACACA_site3034],10.7 ± 0.42
14,TTAATAATTAATTATAGTACACATTTATATTAATAA [XGTACX_site190],11.3 ± 0.95
15,TTATTTAAAAAATTTTTAAATATACAAAAAAAAAAA [TGCATGCA_negctrl_site464],9.81 ± 0.13
16,ATTATAAGAAGGGGGGGTACATAAATATAAATGTAT [XGTACX_site5624],11.9 ± 0.95
17,TTTAAAAAAAAAAATACACACATAAAAATTTTCAAA [CACACA_site703],9.9 ± 0.085
18,AGGATTAAAAAAACATGTACGTATTTAAATATATTT [XGTACX_site8774],11.4 ± 0.81
19,TACTGGTATCGATATAGTACATATAATATTATGTTA [XGTACX_site7490],11.1 ± 0.69

row,Sequence,gcPBM binding intensity (ln)
1,AATTGAATAAATTAAACATGCACAGATGTTCTATTT [TGCATGCA_site692],9.63 ± 0.25
2,AAATAAAAAATATGAACACACATATATAACAAAATA [CACACA_site261],9.95 ± 0.12
3,GTATAAAAAAATAAAAGTACAAAAAAAAAAGACTGA [XGTACX_site186],11.4 ± 0.77
4,TTTTTTTTTTTTTTTTTTTTTTTTTTTTTTTTTTTT [CACACA_negctrl_site104],11.2 ± 0.69
5,ATATATTTATTTTGTGCACACAACGCAAACCTTTTA [CACACA_site3508],10.5 ± 0.27
6,ATTTTTTCTTTTCGATGTACCCTTCTTATTCTTTAT [XGTACX_site3782],11.1 ± 0.72
7,TATATCGCCTTCAAAAGTACTCATATAAAAAAAAAA [XGTACX_site7123],11.2 ± 0.86
8,TTTATTTTTCATTGGGGTACACAAGTTTATTTTTGA [XGTACX_site4262],11.7 ± 0.86
9,ATATCGTTTTTAAATTGTACATTCACTATAGAATAA [XGTACX_site6442],10.9 ± 0.56
10,TTCTTTGTTTTTTTTTTTTTTTTAAAAGATAATATT [XGTACX_negctrl_site381],9.81 ± 0.33
11,AAAAAAAAAAAAAAATGTACTTTTATTATTAATATA [XGTACX_site6357],11.1 ± 0.71
12,AGTTCATATTTAAAAAGTACATATTTAAAAACTTCT [XGTACX_site4882],11.4 ± 0.88
13,TTTGAACTTTTATATACACACATTATTATAGTATAG [CACACA_site6851],10.04 ± 0.071
14,TTTTTGTATGCTTCCCGACTACATTATGTCGTAAAT [GTGCAC_negctrl_site164],10.22 ± 0.092
15,AACAAAGAGAAATAAACACACACAAAATAAAGAAAA [CACACA_site8704],9.81 ± 0.13
16,ATTAATTAAAATAGTTGTACAATCAAAAAAACAAAA [XGTACX_site7660],11.4 ± 0.87
17,GATATTACGTGTTTGGTATTTTTTGATGTTAATAGG [CACACA_negctrl_site105],10.21 ± 0.064
18,TATAAAATAATTAAATGTACATAATATATAAAATAT [XGTACX_site6777],11.1 ± 0.35
